Laboratory results taken from PubChem BioAssay AID686978 (National Center for Advancing Translational Sciences (NCATS), 2013).
About 64,000 (15%) of roughly 420,000 compounds were called active. The inconclusive results got no clear call from the source; some entries with a clear call stand among them for comparison. The call rests on the fitted dose curve; in most records, active means well fitted inhibition curve with a large enough effect; inconclusive means small, poorly fitted or top-dose-only effect; inactive means flat fitted curve, though single readings scatter. No potency is given beside an inconclusive call; the fits are too rough.

Experiment: qHTS for Inhibitors of human tyrosyl-DNA phosphodiesterase 1 (TDP1): qHTS in cells in absence of CPT; further: nearly all actives have a fitted effect of over 55% in size
Conditions: DT40 Tdp1-/- hTDP1 cells, no CPT, ATP luminescence, 48 h; activity change, negative = growth inhibition: at 46.2 µM (top of the series) unless noted
In short: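 Chicken DT40 Tdp1-/- cells stably complemented with human TDP1 were seeded at 400 cells/well with DMSO in place of 20 nM camptothecin. After compound pinning, cells grew at least 48 hr at 37 °C; viability read by CellTiter-Glo luminescence.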
On the % scale 0 is the no-effect control and ±100 the full control effect; potency means the concentration at half of the fitted maximal effect; tags describe the fitted curve by direction and shape.

SMILES	Potency	activity change, negative = growth inhibition
Cc1ccc(C)c2[nH]c(=O)c(CCNC(=O)c3ccc(S(=O)(=O)N4CCCC4)cc3)cc12	inconclusive [inhibitor, single point]	
O=C(N/N=C/c1ccc(Cl)cc1Cl)Nc1ccccc1	inconclusive [inhibitor, partial curve]	
Cc1cc(C)nc(NC(=O)Nc2ccccc2C(F)(F)F)n1	active: 18.4 µM	
O=[N+]([O-])c1nn(-c2ccccc2)n(O)c1=NC1CCN(Cc2ccccc2)CC1	active: 9.2 µM	
CCn1cc2c(n1)-c1c(oc(C(=O)Nc3ccc(Br)cc3F)c1C)CC2	active: 20.6 µM	
Cc1ccc(-c2nnc(N3CCOCC3)c3ccccc23)cc1S(=O)(=O)NCC1CCCO1 (stereo not given)	active: 25.9 µM	
CC(C(=O)N1CCN(C2c3ccccc3-c3ccccc32)CC1)N1C(=O)c2ccccc2C1=O (stereo not given)	inconclusive [inhibitor, single point]	
O=C(O)CC1c2ccccc2CCN1C(=O)Nc1cc(Cl)ccc1Cl (stereo not given)	active: 20.6 µM	
CCOc1ccc(NS(=O)(=O)c2ccc(NC(=O)c3ccccn3)cc2)cc1	inconclusive [inhibitor, partial curve, poor fit]	
COc1ccc(-n2c(C)cc(C(=O)Cn3c(NCCO)nc4ccccc43)c2C)cc1	active: 20.6 µM	
Cc1ccc2cc(CN(Cc3ccc4c(c3)OCO4)Cc3nnnn3Cc3ccco3)c(=O)[nH]c2c1	inconclusive [inhibitor, single point]	
COc1ccc(-n2c(SCC(=O)Nc3nccs3)nc3c(c2=O)SCC3)cc1		inconclusive: -30% [inhibitor]
COc1ccc(-c2cc(C)no2)cc1S(=O)(=O)NCCCN1CCN(c2ccccc2)CC1	active: 23.1 µM	
O=C(COc1ccc2ccccc2c1)Nc1nc2ccccc2[nH]1	inconclusive [inhibitor, partial curve, poor fit]	
COc1ccc(-c2nnc(-c3cccnc3)o2)cc1	inactive	
c1ccc(Cn2c(-c3cncs3)nc3ccccc32)cc1		inconclusive: -12.4% [inhibitor]
Cc1ccc(CN(C(=O)c2ccc(OCC(C)C)cc2)c2ccccn2)o1	inconclusive [inhibitor, single point]	
CN(C)C(=O)c1ccc(NC(=O)c2cccc(S(=O)(=O)N3CCCc4ccccc43)c2)cc1	active: 16.4 µM	
CCc1cccc(CC)c1NC(=O)CCCSc1nc2ccccc2s1	inconclusive [inhibitor, single point]	
O=C(COc1ccccc1)N1CCN(C(=O)c2cccs2)CC1	inactive	
